Laboratory results taken from patent publication US20210252104A1, “ANTIBACTERIAL PEPTIDE MONOMERS AND COMBINATIONS FOR CO-THERAPY” (ARREVUS, INC., priority 2018, published 2021).
Non-standard residues stand in square brackets, D forms with d. Residues, ends and D or L forms follow the SMILES beside them. Ac6c = NC1(C(=O)O)CCCCC1

Test system: E. coli 5770
Assay: Mice challenged ip with E. coli 5770, blood bacterial counts
Settings: of 3 mice

## CC(C)C[C@H](NC(=O)[C@H](Cc1ccc(O)cc1)NC(=O)[C@@H]1CCCN1C(=O)[C@H](CCCNC(=N)N)NC(=O)[C@@H]1CCCN1C(=O)[C@H](CCCCN)NC(=O)[C@H](CC(=O)O)NC(=O)[C@@H]1CCCN1C(=O)[C@H](CCCNC(=N)N)NC(=O)C1(N)CCCCC1)C(=O)N1CCC[C@H]1C(=O)N[C@@H](CCCNC(=N)N)C(=O)N1CCC[C@H]1C(=O)N[C@@H](CCCNC(=N)N)C(=O)N1CCC[C@H]1C(=O)N1CCC[C@H]1C(=O)N[C@@H](CCCNC(=N)N)C(=O)N1CCC[C@H]1C(=O)N[C@H](C(=O)N[C@@H](CCCNC(=N)N)C(N)=O)C(C)C [Example 1, Chex-RPDKPRPYLPRPRPPRPVR-NH2] (H-[Ac6c]RPDKPRPYLPRPRPPRPVR-NH2)
2.5 mg/kg ip, 8 h
  Number of animals with bacterial counts below the detection limit of 1,000 CFU/mL: (0/3)
2.5 mg/kg ip, 12 h
  Number of animals with bacterial counts below the detection limit of 1,000 CFU/mL: (1/3)
2.5 mg/kg ip, 16 h
  Number of animals with bacterial counts below the detection limit of 1,000 CFU/mL: (1/3)
2.5 mg/kg ip, 24 h
  Number of animals with bacterial counts below the detection limit of 1,000 CFU/mL: (1/3)
5 mg/kg ip, 8 h
  Number of animals with bacterial counts below the detection limit of 1,000 CFU/mL: (0/3)
5 mg/kg ip, 12 h
  Number of animals with bacterial counts below the detection limit of 1,000 CFU/mL: (0/3)
5 mg/kg ip, 16 h
  Number of animals with bacterial counts below the detection limit of 1,000 CFU/mL: (2/3)
5 mg/kg ip, 24 h
  Number of animals with bacterial counts below the detection limit of 1,000 CFU/mL: (3/3)
10 mg/kg ip, 8 h
  Number of animals with bacterial counts below the detection limit of 1,000 CFU/mL: (0.3)
10 mg/kg ip, 12 h
  Number of animals with bacterial counts below the detection limit of 1,000 CFU/mL: (0.3)
10 mg/kg ip, 16 h
  Number of animals with bacterial counts below the detection limit of 1,000 CFU/mL: (3/3)
10 mg/kg ip, 24 h
  Number of animals with bacterial counts below the detection limit of 1,000 CFU/mL: (3/3)
